Test results taken from patent publication US20170267750A1, “Method of Treating Ovarian and Renal Cancer Using Antibodies Against T Cell Immunoglobulin Domain and Mucin Domain 1 (TIM-1) Antigen” (Celldex Therapeutics, Inc., priority 2005, published 2017).

Experiments:
[1] = biological target: T1, TIM-1 on activated T cells (Homo sapiens, UniProt Q96D42); assay: FACS: percent of activated T cells that express TIM-1; type: cell-based
T1 construct: a major fraction of polarized human Th2 and Th1 cells do express TIM-1; endogenous in cells; host or cells: primary human CD4+ T cells from blood
T1 sequence (Q96D42 21-364): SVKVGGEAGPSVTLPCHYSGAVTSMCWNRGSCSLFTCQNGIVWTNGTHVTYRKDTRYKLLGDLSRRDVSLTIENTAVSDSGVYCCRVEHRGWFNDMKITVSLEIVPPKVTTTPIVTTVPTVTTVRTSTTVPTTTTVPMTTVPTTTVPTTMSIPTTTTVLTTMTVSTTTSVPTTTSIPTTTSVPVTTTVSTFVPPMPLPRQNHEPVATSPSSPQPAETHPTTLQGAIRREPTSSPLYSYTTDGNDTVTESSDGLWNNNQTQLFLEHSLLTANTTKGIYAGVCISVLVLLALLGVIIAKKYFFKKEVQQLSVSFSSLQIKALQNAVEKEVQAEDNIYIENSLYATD

BT549 cells [2] = assay: Antibody toxin conjugate (Auristatin E) mediated killing clonogenic assay, BT549; type: cell-based, human; settings: 1 to 1000 ng/ml, antigen negative cells
[3] = biological target: T2, TIM-1 antigen expressed on ACHN cells (Homo sapiens, UniProt Q96D42); assay: FACS analysis of antibody reactivity with membrane bound TIM-1 on ACHN renal cancer cells; type: binding
T2 construct: endogenous in cells; host or cells: ACHN (ATCC CRL-1611); CAKI-2 (ATCC HTB-47)
T2 sequence (Q96D42 21-364): T1 sequence (Q96D42 21-364)

[4] = biological target: T3, TIM-1 antigen expressed on CAKI-2 cells (Homo sapiens, UniProt Q96D42); assay: FACS analysis of antibody reactivity with membrane bound TIM-1 on CAKI-2 renal cancer cells; type: binding
T3 construct: endogenous in cells; host or cells: ACHN (ATCC CRL-1611); CAKI-2 (ATCC HTB-47)
T3 sequence (Q96D42 21-364): T1 sequence (Q96D42 21-364)

BT549 cells [5] = assay: FACS analysis on antigen negative BT549 breast cancer cells (control); type: binding, human
BT549 cells [6] = assay: Antibody mediated toxin killing clonogenic assay (saporin conjugated secondary antibody), BT549; type: cell-based; settings: 100 ng/mL primary mAb plus goat anti-human IgG-saporin secondary; antigen negative cells
Method: A clonogenic assay as described in the art was used to determine whether primary antibodies can induce cancer cell death when used in combination with a saporin toxin conjugated secondary antibody reagent. Kohls and Lappi, Biotechniques, 28(1):162-5 (2000).
ACHN and BT549 cells were plated onto flat bottom tissue culture plates at a density of 3000 cells per well. On day 2 or when cells reached ˜25% confluency, 100 ng/well secondary mAb-toxin (goat anti-human IgG-saporin; Advanced Targeting Systems; HUM-ZAP; cat. no. IT-22) was added. A positive control anti-EGFR antibody, mAb 2.7.2, mAb 2.59.2, or an isotype control mAb was then added to each well at the desired concentration (typically 1 to 500 ng/mL). On day 5, the cells were trypsinized, transferred to a 150 mm tissue culture dish, and incubated at 37° C. Plates were examined daily. On days 10-12, all plates were Giemsa stained and colonies on the plates were counted. Plating efficiency was determined by comparing the number of cells prior to transfer to 150 mm plates to the number of colonies that eventually formed.
The percent viability in antigen positive ACHN and antigen negative BT549 cell lines are presented in FIG. 4 and FIG. 5 respectively.

[7] = biological target: T4, TIM-1 protein on human CD4+ Th2 cells (Homo sapiens, UniProt Q96D42); assay: FACS analysis of expression of TIM-1 protein on human CD4+ Th2 cells; type: binding; settings: Polarized Human CD4+ Th2 Cells
T4 construct: a major fraction of polarized human Th2 and Th1 cells do express TIM-1; endogenous in cells; host or cells: primary human CD4+ T cells from blood
T4 sequence (Q96D42 21-364): T1 sequence (Q96D42 21-364)

B1: mAb 2.70.2: monoclonal antibody 2.70 further subcloned and designated 2.70.2; SEQ ID NO: 50 and 52 in Table 1 (antibody)
heavy: QVQLVESGGGVVQPGRSLRLSCAASGFIFSRYGMHWVRQAPGKGLKWVAVIWYDGSNKLYADSVKGRFTISRDNSKNTLYLQMNSLRAEDTAVYYCARDYYDNSRHHWGFDYWGQGTLVTVSSASTKGPSVFPLAPCSRSTSESTAALGCLVKDYFPEPVTVSWNSGALTSGVHTFPAVLQSSGLYSLSSVVTVPSSSLGTKTYTCNVDHKPSNTKVDKRV[not shown - human IgG4 Fc]
light: DIVMTQTPLSLPVTPGEPASISCRSSRSLLDSDDGNTYLDWYLQKPGQSPQLLIYTLSYRASGVPDRFSGSGSGTDFTLKISRVEAEDVGVYYCMQRVEFPITFGQGTRLEIKRTVAAPSVFIFPPSDEQLKSGTASVVCLLNNFYPREAKVQWKVDNALQSGNSQESVTEQDSKDSTYSLSSTLTLSKADYEKHKVYACEVTHQGLSSPVTKSFNRGEC
Percent of activated T cells that express TIM-1 ([1]; Day 0, +MMPI): 1% | Percent of activated T cells that express TIM-1 ([1]; Day 0, −MMPI): 1% | Percent of activated T cells that express TIM-1 ([1]; Day 1, +MMPI): 10% | Percent of activated T cells that express TIM-1 ([1]; Day 1, −MMPI): 8% | Percent of activated T cells that express TIM-1 ([1]; Day 2, +MMPI): 14% | Percent of activated T cells that express TIM-1 ([1]; Day 2, −MMPI): 10% | Percent of activated T cells that express TIM-1 ([1]; Day 4, +MMPI): 10% | Percent of activated T cells that express TIM-1 ([1]; Day 4, −MMPI): 5% | Percent of activated T cells that express TIM-1 ([1]; Day 5, +MMPI): 19% | Percent of activated T cells that express TIM-1 ([1]; Day 5, −MMPI): 13% | effect on growth / survival of BT549 cells (BT549 cells [2]): did not affect the survival | specific binding to TIM-1 antigen expressed on cells (FACS) [3]: specifically bound | specific binding to TIM-1 antigen expressed on cells (FACS) [4]: specifically bound | binding to antigen negative cells (FACS) (BT549 cells [5]): but not | BT549 cell death (BT549 cells [6]): 0% | Geometric mean of fluorescence intensity [7]: 27.8
